# In PubChem BioAssay (NCI):
#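 All cell lines were grown in 96-well plates and treated with compound for 48 hours. Here, GI50 denotes the concentration required for 50% inhibition of growth.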 The source holds more than one record for some entries. This list holds those alone. There may be further records. For part of these data: The values listed for one entry repeat one measurement (runs, samples, wells, individuals or studies). What stands in brackets tells the records apart. Letters count within one entry.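 TGI marks complete inhibition of growth.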 For part of these data: A record mostly stands for its own series of concentrations, not given here; a value can be the end of its range.
# Key:
# Test in all cases: NCI-60 cell line screen, 48 h
# 786-0 renal = test system: 786-0 renal
# EKVX NSCLC = test system: EKVX NSCLC
# HOP-62 NSCLC = test system: HOP-62 NSCLC
# HOP-92 NSCLC = test system: HOP-92 NSCLC
# HS 578T breast = test system: HS 578T breast
# KM12 colon = test system: KM12 colon
# OVCAR-4 ovarian = test system: OVCAR-4 ovarian
# PC-3 prostate = test system: PC-3 prostate
# RXF 393 renal = test system: RXF 393 renal
# SF-295 CNS = test system: SF-295 CNS
# SK-MEL-28 melanoma = test system: SK-MEL-28 melanoma
# SK-OV-3 ovarian = test system: SK-OV-3 ovarian
# SNB-19 CNS = test system: SNB-19 CNS
# SNB-75 CNS = test system: SNB-75 CNS
# T-47D breast = test system: T-47D breast
# TK-10 renal = test system: TK-10 renal
# U251 CNS = test system: U251 CNS
# MCF7 breast = test system: MCF7 breast
# MOLT-4 leukemia = test system: MOLT-4 leukemia
# RPMI-8226 leukemia = test system: RPMI-8226 leukemia
# ACHN renal = test system: ACHN renal
# NCI-H460 lung = test system: NCI-H460 lung
# OVCAR-3 ovarian = test system: OVCAR-3 ovarian
# SR leukemia = test system: SR leukemia
smiles,measurement,setting,value
OCC(O)C(O)C(O)C(/C=N\Nc1ncnc2c(Br)cc(Br)cc12)=N/Nc1ncnc2c(Br)cc(Br)cc12 (stereo not given),TGI,786-0 renal,"9.51 µM [sample A, 1 test] and > 100 µM [sample B, 1 test]"
same,TGI,EKVX NSCLC,"4.69 µM [sample A, 1 test] and > 100 µM [sample B, 1 test]"
same,TGI,HOP-62 NSCLC,"4.87 µM [sample A, 1 test] and > 100 µM [sample B, 1 test]"
same,GI50,HOP-92 NSCLC,"2.54 µM [sample A, 1 test] and > 100 µM [sample B, 1 test]"
same,TGI,HOP-92 NSCLC,"7.37 µM [sample A, 1 test] and > 100 µM [sample B, 1 test]"
same,GI50,HS 578T breast,"4.3 µM [sample A, 1 test] and > 100 µM [sample B, 1 test]"
same,GI50,KM12 colon,"8.84 µM [sample A, 1 test] and > 100 µM [sample B, 1 test]"
same,TGI,OVCAR-4 ovarian,7.29 µM [sample A] and > 100 µM [sample B]
same,GI50,PC-3 prostate,"3.98 µM [sample A, 1 test] and > 100 µM [sample B, 1 test]"
same,GI50,RXF 393 renal,"2.28 µM [sample A, 1 test] and > 100 µM [sample B, 1 test]"
same,TGI,RXF 393 renal,"5.32 µM [sample A, 1 test] and > 100 µM [sample B, 1 test]"
same,TGI,SF-295 CNS,"6.88 µM [sample A, 1 test] and > 100 µM [sample B, 1 test]"
same,GI50,SK-MEL-28 melanoma,"1.83 µM [sample A, 1 test] and > 100 µM [sample B, 1 test]"
same,TGI,SK-MEL-28 melanoma,"6.12 µM [sample A, 1 test] and > 100 µM [sample B, 1 test]"
same,GI50,SK-OV-3 ovarian,"2.96 µM [sample A, 1 test] and > 100 µM [sample B, 1 test]"
same,GI50,SNB-19 CNS,"2.81 µM [sample A, 1 test] and > 100 µM [sample B, 1 test]"
same,TGI,SNB-19 CNS,"8.91 µM [sample A, 1 test] and > 100 µM [sample B, 1 test]"
same,GI50,SNB-75 CNS,"2.32 µM [sample A, 1 test] and > 100 µM [sample B, 1 test]"
same,TGI,SNB-75 CNS,"4.88 µM [sample A, 1 test] and > 100 µM [sample B, 1 test]"
same,TGI,T-47D breast,9.86 µM [sample A] and > 100 µM [sample B]
same,GI50,TK-10 renal,"4.63 µM [sample A, 1 test] and > 100 µM [sample B, 1 test]"
same,TGI,U251 CNS,6.12 µM [sample A] and > 100 µM [sample B]
COC(=O)C1OC(O[C@H]2CC[C@]3(C)[C@H]4CC=C5[C@@H]6CC(C)(C)CC[C@]6(C(=O)OC6OCC(O)C(O)C6OC6OC(C)C(OC7OCC(O)C(O)C7O)C(O)C6O)[C@H](O)C[C@@]5(C)[C@]4(C)CC[C@H]3C2(C)C)C(O)C(O)C1O (stereo not given in full),GI50,MCF7 breast,"2.68 µM [sample A, mean of 2 tests] and 188 nM [sample B, mean of 2 tests]"
[N-]=[N+]=CC(=O)CCC(N)C(=O)O (stereo not given),TGI,MOLT-4 leukemia,993 nM and 109 µM
same,TGI,RPMI-8226 leukemia,19.6 µM and > 250 µM
C[C@@H]1C[C@@H]([C@H](O)CC2CC(=O)NC(=O)C2)C(=O)[C@@H](C)C1,TGI,ACHN renal,627 nM [sample A] and 14 µM [sample B]
same,TGI,KM12 colon,2.06 µM [sample A] and > 21.4 µM [sample B]
same,TGI,NCI-H460 lung,> 100 µM [sample A] and 8.99 µM [sample B]
same,TGI,OVCAR-3 ovarian,1.73 µM [sample A] and > 21.2 µM [sample B]
same,TGI,SR leukemia,396 nM [sample A] and 8.39 µM [sample B]
